Experimental findings from patent publication US12240912 (AARHUS UNIVERSITET, dated 2025) are described below.

This assay deals with T1, Human C3 (native C3) (human, UniProt P01024 23-1663).
T1 construct: Purified from outdated human plasma; The entry is given as one stretch, 23-1663; also called hC3; Nat C3
The assay can be described thus: SEC (Superdex 200 increase), 1:1 molar mix.

B1: IgG-Fc-hC3Nb1 (Fc fusion)
chain: [sequence of human IgG1 Fc with C220S (EU numbers) and a few adjoining residues omitted]QVQLVETGGGLVQAGGSLRLSCAASGSIFSINAMGWFRQAPGKEREFVATINRSGGRTYYADSVKGRFTISRDNGKNMVYLQMHSLKPEDTAIYYCAAGTGWSPQTDNEYNYWGQGTQVTVSS
notes: also called IgG-Fc-hC3bNb1; lgG-Fc-hC3Nb1
Take B1: the binding result was “no binding”.
